Assay [1] addresses FLAG-CHIP H260Q (HEK293) (UniProt Q9UNE7). As to the kind of experiment: co-IP; HEK293 cells cotransfected with FLAG-CHIP (WT, K30A or H260Q) and OCT4 expression vector for 40 h, then 20 uM MG132 for 8 h; immunoprecipitation from lysate.
Assay [2] concerns the target FLAG-CHIP K30A (HEK293) (UniProt Q9UNE7). The description is as above.
The target in assay [3] is WT FLAG-CHIP (HEK293) (UniProt Q9UNE7). The description is as above.
The target of assay [4] is carboxy terminus of HSP70-interacting protein (CHIP) in MDA-MB-231 cells (human (in MDA-MB-231 cells; endogenous or transfected not stated)) (UniProt Q9UNE7). As to the kind of experiment: co-IP; immunoprecipitation from MDA-MB-231 cell lysate; precipitating antibody not stated for this panel.
For assay [5], the target named is CHIP in MCF7_OCT4KD cells (UniProt Q9UNE7). As to the kind of experiment: co-IP; MCF7_OCT4KD cells transfected with the indicated vectors for 40 h, then 20 uM MG132 for 8 h; immunoprecipitation from lysate.

Sequences of proteins named here, by UniProt entry; tags and fusion partners are left off. A change or cut given only in a name is not applied to a line headed by its entry.
UniProt Q9UNE7: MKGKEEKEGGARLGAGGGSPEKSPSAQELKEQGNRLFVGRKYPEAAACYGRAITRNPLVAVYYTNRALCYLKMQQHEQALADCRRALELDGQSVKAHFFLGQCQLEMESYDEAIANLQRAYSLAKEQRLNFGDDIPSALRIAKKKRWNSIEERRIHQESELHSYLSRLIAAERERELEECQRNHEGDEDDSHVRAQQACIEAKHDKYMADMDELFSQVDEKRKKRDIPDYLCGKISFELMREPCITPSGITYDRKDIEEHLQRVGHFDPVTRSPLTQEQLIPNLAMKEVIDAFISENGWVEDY
UniProt Q01860: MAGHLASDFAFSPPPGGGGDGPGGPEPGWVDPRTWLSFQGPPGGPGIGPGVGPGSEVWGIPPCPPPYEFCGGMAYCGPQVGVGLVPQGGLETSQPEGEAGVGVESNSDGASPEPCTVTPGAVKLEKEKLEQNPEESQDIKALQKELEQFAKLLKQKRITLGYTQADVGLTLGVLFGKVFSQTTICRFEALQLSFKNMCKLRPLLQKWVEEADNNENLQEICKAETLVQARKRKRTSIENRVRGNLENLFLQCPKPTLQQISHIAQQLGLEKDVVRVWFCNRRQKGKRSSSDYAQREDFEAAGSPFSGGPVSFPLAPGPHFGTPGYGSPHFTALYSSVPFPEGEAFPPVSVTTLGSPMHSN

Among the data in paper PMC6180041 are binding values, retold here.

No constants are given. Whether binding was seen depends on the method and setting. Binding seen in cells or lysates may run through a third protein. Some entries that bind do so weakly or less than the wild type.

Take “OCT4 (HEK293, transfected) (from UniProt Q01860 1-360)”: the binding entry in assay [1] is “binds”; in assay [2] it was “no binding”; in assay [3], “binds”. As for “OCT4 in MDA-MB-231 cells (from UniProt Q01860 1-360)”, in assay [4], the binding result is “binds”. Take “OCT4_K284R (MCF7_OCT4KD, transfected) (from UniProt Q01860 1-360)”: the binding result in assay [5] is on record as “binds”.

For “WT OCT4 (MCF7_OCT4KD, transfected) (from UniProt Q01860 1-360)”, in assay [5], the binding entry is reported as “binds”.
